Laboratory results published in paper PMC13083723 (Patterns, 2026).
The whole screen tested about 5,400 compounds, of which about 190 (3.5%) showed an effect of 50% or more. Some of the results follow.

Tested on: Vero-E6
Test: primary screen, phospholipidosis by LipidTOX staining; higher = more effect of the substance
Settings: 10 µM
Method in brief: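 Drug-induced phospholipidosis detected with HCS LipidTOX Red reagent in Vero-E6 cells. Compounds tested at 10 μM, with amiodarone (10 μM) as positive control and DMSO (0.1 v/v %) as vehicle.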

SMILES | result_ITMP
Cc1cc(F)c(Nc2ncnc3cc(OCc4ccccc4)ccc23)cc1O | -2.14%
CC(C)[C@@H](N)C(=O)O | -0.03%
CCCC(=O)O[C@]1(C(=O)CO)CC[C@H]2[C@@H]3CCC4=CC(=O)CC[C@]4(C)[C@H]3[C@@H](O)C[C@@]21C | -5.08%
Cn1cncc1[C@@](N)(c1ccc(Cl)cc1)c1ccc2c(c1)c(-c1cccc(Cl)c1)cc(=O)n2C | 22%
Cc1cc(C#N)cc(C)c1Oc1nc(Nc2ccc(C#N)cc2)nc(N)c1Br | 0.4%
Cc1ccc(C23CNCC2C3)cc1 (stereo not shown) | 0.98%
O=c1[nH]c(=O)n([C@H]2C[C@H](O)[C@@H](CO)O2)cc1C(F)(F)F | 0.71%
c1cc(CN2CCCNCCNCCCNCC2)ccc1CN1CCCNCCNCCCNCC1 | -2.03%
CN[C@H](CC(C)C)C(=O)N[C@H]1C(=O)N[C@@H](CC(N)=O)C(=O)N[C@H]2C(=O)N[C@H]3C(=O)N[C@H](C(=O)N[C@H](C(=O)O)c4cc(O)cc(O)c4-c4cc3ccc4O)[C@H](O[C@H]3C[C@](C)(N)[C@@H](O)[C@H](C)O3)c3ccc(c(Cl)c3)Oc3cc2cc(c3O[C@@H]2O[C@H](CO)[C@@H](O)[C@H](O)[C@H]2O[C@H]2C[C@](C)(NCc3ccc(-c4ccc(Cl)cc4)cc3)[C@@H](O)[C@H](C)O2)Oc2ccc(cc2Cl)[C@H]1O | 0.08%
CC(=O)O[C@@H]1CC[C@@]2(C)[C@@H](CC[C@]3(C)[C@@H]2C(=O)C=C2[C@@H]4[C@@H](C)[C@H](C)CC[C@]4(C)CC[C@]23C)[C@@]1(C)C(=O)O | -0.39%
CC(C)NC(=N)NC(=N)Nc1ccc(Cl)cc1 | -3.81%
CC(C)n1cnc2c(NCCc3ccc(O)cc3)nc(-c3csc4ccccc34)nc21 | 4.27%
O=C(NNc1ccccc1)c1ccncc1 | -2.28%
CCCCC/C=C\C=C/CCCCCCCCC(=O)O | -3.09%
COc1ccc2nc(S(=O)Cc3ncc(C)c(OC)c3C)[nH]c2c1 (stereo not shown) | 1.1%
Cc1nc2c(O)cccc2c(=O)[nH]1 | -1.87%
CC1CCc2cc(F)cc3c(=O)c(C(=O)O)cn1c23 (stereo not shown) | -2.22%
O=C(NCC1CCCCN1)c1cc(OCC(F)(F)F)ccc1OCC(F)(F)F (stereo not shown) | -0.31%
C[C@@H]([C@H](O)c1ccc(O)cc1)N1CCC(Cc2ccccc2)CC1.C[C@H]([C@@H](O)c1ccc(O)cc1)N1CCC(Cc2ccccc2)CC1 | 8.99%
COc1cc(N2CCC(N3CCN(C)CC3)CC2)ccc1Nc1ncc(Cl)c(Nc2ccccc2S(=O)(=O)C(C)C)n1 | -2.93%
N[C@@H](Cc1ccc(I)cc1)C(=O)O | -0.07%
CN1CCN(C(=O)CN[C@@H]2C[C@H]2c2ccc(OCc3ccccc3)cc2)CC1 | 87.7%
CC1(C)S[C@@H]2[C@H](/N=C/N3CCCCCC3)C(=O)N2[C@H]1C(=O)O | 2.81%
CCCOc1ccc2nc(NC(=O)OC)[nH]c2c1 | -2.44%
CCCC[C@H](C)C[C@H](O)/C=C/[C@H]1[C@H](O)CC(=O)[C@@H]1CCCC/C=C/C(=O)O | -0.28%
CNCCc1c[nH]cn1 | -7.65%

SMILES | result_ITMP
CCCCOc1ccc(OCCCN2CCOCC2)cc1 | 2.18%
Nc1cccc(-c2cc3c(Oc4cccc(O)c4)ncnc3[nH]2)c1 | 0.14%
CC(C)[C@H]1CC[C@H](C(=O)N[C@H](Cc2ccccc2)C(=O)O)CC1 | -9.88%
CC(=O)Oc1cccc(C(=O)O)c1OC(C)=O | -9.93%
COc1c(O)cc2c(c1O)[C@@H]1O[C@H](CO)[C@@H](O)[C@H](O)[C@H]1OC2=O | -0.33%
COc1ccc(CCCOC(Cn2ccnc2)c2ccc(OC)cc2)cc1 (stereo not shown) | 21.7%
CC(C)N[C@H]1CCn2c(=O)[nH]c3cccc(c32)[C@@H]1O | -1.61%
COc1ccc(-n2nc(C(N)=O)c3c2C(=O)N(c2ccc(N4CCCCC4=O)cc2)CC3)cc1 | -4.73%
COc1ccc(C(C)=O)c(O)c1 | -7.47%
CC(C)c1nc(CN(C)C(=O)N[C@H](C(=O)N[C@@H](Cc2ccccc2)C[C@H](O)[C@H](Cc2ccccc2)NC(=O)OCc2cncs2)C(C)C)cs1 | 1.57%
COc1cc2c(cc1OC)-c1cc3nc4ccccc4nc3n1C(C)(C)C2 | -1.86%
CCC(CC)[C@H](NC(C)=O)[C@@H]1[C@H](O)[C@@H](C(=O)O)C[C@H]1NC(=N)N | -2.33%
COc1ccccc1OCCNCC(O)COc1cccc2[nH]c3ccccc3c12 (stereo not shown) | 43.5%
NC(=O)c1[nH]cnc1O | -0.78%
O=C(O)CNC(=O)C1C(=O)N(C2CCCCC2)C(=O)N(C2CCCCC2)C1=O | 0.57%
Nc1nccc(Oc2ccc(NC(=O)c3cn(COP(=O)(O)O)cc(-c4ccc(F)cc4)c3=O)cc2F)c1Cl | -1.79%
Cc1c(CN(C)C(=O)/C=C/C2=CNC3=NC(=O)CCC3=C2)oc2ccccc12 | -2.49%
CO/N=C(\C(=O)N[C@@H]1C(=O)N2C(C(=O)[O-])=CCS[C@H]12)c1csc(N)n1 | -1.89%
O=C(Nc1cccc(Cl)c1)Nc1ncc(CCNc2ncnc3ccsc23)s1 | -6.59%
COc1ccc2[nH]c(S(=O)Cc3ncc(C)c(OC)c3C)nc2n1 (stereo not shown) | -3.31%
O=c1[nH]c([C@@H]2CCCN2)nc2c1oc1ccc(Cl)cc12 | 0.31%
CN1CCN(c2ccc(C(=O)Nc3n[nH]c4ccc(Cc5cc(F)cc(F)c5)cc34)c(NC3CCOCC3)c2)CC1 | 96.5%
Clc1ccc2c(NCCNc3ccnc4cc(Cl)ccc34)ccnc2c1 | -2.87%
CCc1c(C(=O)NCCc2ccc(N3CCCCC3)cc2)[nH]c2ccc(Cl)cc12 | -1.78%
Oc1ccc(C(O)CNCCCCCCNCC(O)c2ccc(O)c(O)c2)cc1O (stereo not shown) | 0.03%
C[C@H](CCC(=O)O)[C@H]1CC[C@H]2[C@@H]3CC[C@@H]4C[C@H](O)CC[C@]4(C)[C@H]3C[C@H](O)[C@]12C | 0.11%
